# Laboratory results published in PubChem BioAssay AID1768 (National Center for Advancing Translational Sciences (NCATS), 2009).
# Among all 270,000 compounds or so, about 620 (0.23%) were called active. The inconclusive results got no clear call from the source; some entries with a clear call stand among them for comparison. The call rests on the fitted dose curve; in most records, active means well fitted inhibition curve with a large enough effect in the polarisation, with a control signal flat (not every such curve was filed as active); inconclusive means small, poorly fitted or top-dose-only effect, or effect the other way, or a change in a side signal; inactive means no such curve, though single readings can be large or run the other way; the % refers to the polarisation. A potency beside an inconclusive call is a rough fit, not a confirmed value. “Side channel” marks fits to a control or component signal instead of the main read-out.
# Molecular target: Menin (Homo sapiens) (UniProt O00255)
# UniProt O00255, sequence (O00255 whole entry, looked up): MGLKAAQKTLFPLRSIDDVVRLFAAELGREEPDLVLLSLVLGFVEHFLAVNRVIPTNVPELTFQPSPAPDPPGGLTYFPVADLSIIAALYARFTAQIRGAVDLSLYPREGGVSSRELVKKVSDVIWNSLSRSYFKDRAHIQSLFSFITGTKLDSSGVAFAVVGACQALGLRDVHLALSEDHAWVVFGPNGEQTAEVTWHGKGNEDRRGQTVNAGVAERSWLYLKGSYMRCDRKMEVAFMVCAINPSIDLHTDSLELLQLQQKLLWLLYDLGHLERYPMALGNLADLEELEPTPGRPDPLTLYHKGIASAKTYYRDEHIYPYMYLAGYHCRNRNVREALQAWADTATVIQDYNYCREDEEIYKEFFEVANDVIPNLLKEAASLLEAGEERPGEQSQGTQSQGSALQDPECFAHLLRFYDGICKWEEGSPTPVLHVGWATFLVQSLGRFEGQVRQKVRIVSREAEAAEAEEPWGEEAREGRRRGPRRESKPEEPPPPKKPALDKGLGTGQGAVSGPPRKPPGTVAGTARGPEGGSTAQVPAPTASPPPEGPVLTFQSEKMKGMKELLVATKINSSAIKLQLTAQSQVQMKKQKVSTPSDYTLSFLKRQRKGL
# Assay: qHTS Assay for Inhibitors Targeting the Menin-MLL Interaction in MLL Related Leukemias: Competition With Texas Red Labeled MLL-derived Mutant Peptide; on FP activity change, negative = inhibition: % of control where 0% means no effect
# Conditions: fluorescence polarization; FP activity change, negative = inhibition: at 61.6 µM (top of the series)
# Potency means the concentration at half of the fitted maximal effect; tags describe the fitted curve by direction and shape or compound fluorescence and quenching.
Structure (SMILES),"FP activity change, negative = inhibition",Potency
CCCCOC(=O)Cn1c2ccc(OC)cc2c2nc3ccccc3nc21,inactive: -0.136%,
COc1ccc(/C=C2\SC(=S)N(CCC(=O)Nc3cccc(C(=O)O)c3)C2=O)cc1OC,,"inconclusive: 14.1 µM [quencher, side channel, partial curve]"
O=C(Nc1c(Cl)cc(Cl)cc1-c1nc2ccccc2s1)c1ccc(Br)o1,,"inconclusive: 28.2 µM [inhibitor, single point]"
Cc1ccc(C(OCC(O)CNCc2ccc(F)cc2)c2ccccc2)cc1 (stereo not given),,"inconclusive: 3.55 µM [fluorescent, side channel, full curve]"
CCOC(=O)C1(Cc2cccc(OC)c2)CCN(Cc2cccc(OC)c2OC)CC1,,"inconclusive: 14.1 µM [fluorescent, side channel, partial curve]"
Cc1cc(Br)ccc1NC(=O)C(C)c1ccc([N+](=O)[O-])cc1 (stereo not given),,"inconclusive: 15.8 µM [quencher, side channel, single point]"
O=C(CCN1C(=O)/C(=C\c2cccs2)SC1=S)Nc1ccccn1,,"inconclusive: 14.1 µM [quencher, side channel, partial curve]"
CCC(C)C(=O)Nc1nc(C)c(-c2csc(Nc3ccc(Cl)cc3)n2)s1 (stereo not given),,"inconclusive: 10 µM [quencher, side channel, partial curve]"
COc1cccc(C(=O)OCC(=O)c2c[nH]c3ccccc23)c1O,,"inconclusive: 20 µM [quencher, side channel, partial curve]"
COc1ccc(C(=O)N2N=C(c3cccc(NS(C)(=O)=O)c3)CC2c2cccs2)cc1 (stereo not given),,"inconclusive: 25.1 µM [quencher, side channel, single point]"
CCc1ccc(C(=O)COC(=O)CNC(=O)c2ccc(N3C(=O)c4ccccc4C3=O)cc2)cc1,,"inconclusive: 25.1 µM [fluorescent, side channel, partial curve]"
CC(=O)Nc1ccc(Nc2cc(N(C)C)c3nonc3c2[N+](=O)[O-])cc1,,"inconclusive: 39.8 µM [fluorescent, side channel, single point]"
Cc1ccc2nc(-c3ccncc3)cc(-c3ccccc3)c2c1,,"inconclusive: 44.7 µM [inhibitor, partial curve, poor fit]"
COc1ccc(Cl)cc1NC(=S)N(Cc1ccc(C(=O)O)cc1)Cc1ccc(OC)c(OC)c1,,"inconclusive: 6.31 µM [quencher, side channel, partial curve]"
O=S(=O)(c1ccccc1)N1CCC(n2nnc3cc(F)ccc32)CC1,,"inconclusive: 5.01 µM [inhibitor, single point]"
c1ccc(-c2nc(NCc3ccco3)c3ccccc3n2)cc1,,"inconclusive: 17.8 µM [quencher, side channel, partial curve]"
Cc1cc(Cl)c(S(=O)(=O)NC2CCCC2)cc1OCC(=O)NC1CCCCC1,,"inconclusive: 14.1 µM [fluorescent, side channel, partial curve]"
Cc1ccc(OCC(=O)NC2CCCCCC2)cc1C,,"inconclusive: 10 µM [fluorescent, side channel, partial curve]"

Structure (SMILES),"FP activity change, negative = inhibition",Potency
O=C(NCc1ccc2c(c1)OCO2)C1CCN(S(=O)(=O)c2cccc3nsnc23)CC1,,"inconclusive: 1.58 µM [inhibitor, full curve, poor fit]"
O=C(NNC(=S)Nc1ccccc1)c1cccc(Br)c1,,"inconclusive: 28.2 µM [quencher, side channel, single point]"
CCSc1nsc(NC(=O)Nc2cccc(OC)c2)n1,,"inconclusive: 14.1 µM [quencher, side channel, partial curve]"
O=C(NCc1ccco1)Nc1ccc([N+](=O)[O-])cc1,,"inconclusive: 20 µM [quencher, side channel, partial curve]"
O=C(Nc1ccc(F)cc1)Nc1ccccc1NS(=O)(=O)c1cccs1,,"inconclusive: 20 µM [quencher, side channel, single point]"
N#Cc1c(-c2ccncc2)c2c([nH]c1=S)CCCC2,,"inconclusive: 39.8 µM [inhibitor, single point]"
N[C@@H](C(=O)N[C@@H]1C(=O)N2C(C(=O)O)=C(Cl)CS[C@H]12)c1ccccc1,,"inconclusive: 20 µM [inhibitor, partial curve]"
CCCOc1ccc(/C=N/NC(=O)CN2CCCCC2)cc1OCC,,"inconclusive: 50.1 µM [fluorescent, side channel, partial curve, poor fit]"
COc1ccccc1Cn1c(=S)[nH]c2ccccc2c1=O,,"inconclusive: 25.1 µM [inhibitor, single point]"
CC(=O)c1ccc(-c2ccc(C3C4C=CCCC4(C)C(=O)N3Cc3ccccc3)c(F)c2)cc1 (stereo not given),,"inconclusive: 1.78 µM [fluorescent, side channel, partial curve, poor fit]"
Cc1ccc(/C=N\Nc2nc3ccc(Cl)cc3[nH]2)o1,,"inconclusive: 28.2 µM [quencher, side channel, single point]"
O=C1C[C@H](c2ccccc2Cl)N1S(=O)(=O)c1ccccc1[N+](=O)[O-],,"inconclusive: 25.1 µM [inhibitor, single point]"
O=C(Nc1ccc([N+](=O)[O-])cc1)c1cncc(Br)c1,,"inconclusive: 25.1 µM [quencher, side channel, partial curve]"
Cc1ccc(C(=O)C2CCN(C(=O)c3ccc(C)cc3)CC2)cc1,,"inconclusive: 28.2 µM [inhibitor, single point]"
COc1ccccc1Cn1c(=S)[nH]c2cc(C(=O)NC(C)C)ccc2c1=O,,"inconclusive: 28.2 µM [fluorescent, side channel, partial curve]"
CC(C)CC(OC(=O)c1ccco1)C(=O)NC1CCCCC1 (stereo not given),,"inconclusive: 39.8 µM [fluorescent, side channel, single point]"
Cc1ccc(-c2cc(C(=O)N/N=C/C=C/c3ccco3)c3ccccc3n2)cc1C,,"inconclusive: 25.1 µM [quencher, side channel, single point]"
